Consider five molecules from patent US20190276511A1 (BIONTECH RNA PHARMACEUTICALS, published 2019).

Where two headings read alike, the source gives them in different places.

The target of test [1] is T1, CD40-Fc (human, UniProt P25942 in part).
T1 construct: extracellular domain; hinge included for covalent assembly; also called CD40 receptor-Fc fusion protein; not shown: human Fc gamma 1 region including the hinge region
Put plainly: ELISA, coated receptor-Fc.

The target of test [2] is T2, CD27-Fc (human, UniProt P26842 20-191).
T2 construct: extracellular domain; hinge included for covalent assembly; also called CD27 receptor-Fc fusion protein; not shown: human Fc gamma 1 region including the hinge region
T2 sequence (looked up): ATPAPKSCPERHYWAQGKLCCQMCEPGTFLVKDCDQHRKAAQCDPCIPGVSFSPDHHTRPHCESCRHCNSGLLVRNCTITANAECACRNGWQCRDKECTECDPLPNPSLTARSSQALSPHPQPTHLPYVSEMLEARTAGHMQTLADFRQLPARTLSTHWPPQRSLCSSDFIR
In words: ELISA, coated receptor-Fc. (In general: In an ELISA, binding on a coated surface is turned into a signal by an enzyme label.)

For test [3], the target named is T3, 4-1BB receptor on cells (human, UniProt Q07011 24-255). Put plainly: cell-based or functional assay.
Test [4] concerns the target T4, OX40 receptor on cells (human, UniProt P43489 29-277).
T4 sequence (looked up): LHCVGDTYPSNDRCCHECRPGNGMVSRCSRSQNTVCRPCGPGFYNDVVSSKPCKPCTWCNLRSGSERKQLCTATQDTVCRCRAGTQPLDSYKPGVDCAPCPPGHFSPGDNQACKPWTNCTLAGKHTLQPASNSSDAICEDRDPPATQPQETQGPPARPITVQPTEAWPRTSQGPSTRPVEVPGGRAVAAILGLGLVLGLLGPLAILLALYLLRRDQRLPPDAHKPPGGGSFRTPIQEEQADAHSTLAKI
In words: cell-based or functional assay.

The target in test [5] is T5, 4-1BB-Fc (human, UniProt Q07011 24-186).
T5 construct: extracellular domain; hinge included for covalent assembly; also called 4-1BB receptor-Fc fusion protein; not shown: human Fc gamma 1 region including the hinge region
Put plainly: ELISA, coated receptor-Fc. As for the experimental part:
(§1) Receptor binding of the single-chain Duokines was analyzed by ELISA using fusion proteins of the extracellular region of CD40, CD27, 4-1BB and OX40, respectively, with the human Fcγ1 region including the hinge region for covalent assembly (CD40-Fc, CD27-Fc, 4-1BB-Fc, OX40-Fc). Receptor-Fc fusion proteins (200 ng/well) were coated overnight at 4° C. and remaining binding sites were blocked with PBS, 2% skimmed milk powder (2% MPBS). […] The interactions between scDuokine and receptor were dose-dependent with EC₅₀ values in the low nanomolar ranges (FIG. 11 AB, Tab. 2).

In test [6] the target is T6, OX40-Fc (human, UniProt P43489 29-214).
T6 construct: extracellular domain; hinge included for covalent assembly; also called OX40 receptor-Fc fusion protein; not shown: human Fc gamma 1 region including the hinge region
T6 sequence (looked up): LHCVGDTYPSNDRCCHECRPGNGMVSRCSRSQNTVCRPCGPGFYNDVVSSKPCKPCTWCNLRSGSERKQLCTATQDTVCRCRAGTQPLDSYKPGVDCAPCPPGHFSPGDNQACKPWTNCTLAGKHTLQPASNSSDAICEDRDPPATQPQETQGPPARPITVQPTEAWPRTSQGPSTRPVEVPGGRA
Put plainly: ELISA, coated receptor-Fc. On the procedure: as §1

Test [7] addresses T6, OX40-Fc. In words: ELISA, coated receptor-Fc. The source holds these as a separate data set.
The target in test [8] is CD40 receptor on cells (human, UniProt P25942 21-277). In words: cell-based or functional assay.
The target in test [9] is T1, CD40-Fc. Put plainly: ELISA, coated receptor-Fc. On the procedure:
as §1
The source holds these as a separate data set.

The target in test [10] is T2, CD27-Fc. Put plainly: ELISA, coated receptor-Fc. As for the experimental part:
as §1
This is another data set of the same source.

Test [11] addresses T3, 4-1BB receptor on cells. In words: cell-based or functional assay. The source holds these as a separate data set.
Test [12] addresses T4, OX40 receptor on cells. Put plainly: cell-based or functional assay. This is another data set of the same source.
In test [13] the target is T5, 4-1BB-Fc. Put plainly: ELISA, coated receptor-Fc. On the procedure: (§2) Receptor binding of the Duokines was analyzed by ELISA using fusion proteins of the extracellular region of CD40, CD27, 4-1BB and OX40, respectively, with the human Fcγ1 region including the hinge region for covalent assembly (CD40-Fc, CD27-Fc, 4-1BB-Fc, OX40-Fc). Receptor-Fc fusion proteins (200 ng/well) were coated overnight at 4° C. and remaining binding sites were blocked with PBS, 2% skimmed milk powder (2% MPBS).
The source holds these as a separate data set.

The target of test [14] is T6, OX40-Fc. In words: ELISA, coated receptor-Fc. As for the experimental part:
as §2
This is another data set of the same source.

Test [15] has as its target T2, CD27-Fc. Put plainly: ELISA, coated receptor-Fc. On the procedure: as §2
This is another data set of the same source.

T3 sequence (Q07011 24-255): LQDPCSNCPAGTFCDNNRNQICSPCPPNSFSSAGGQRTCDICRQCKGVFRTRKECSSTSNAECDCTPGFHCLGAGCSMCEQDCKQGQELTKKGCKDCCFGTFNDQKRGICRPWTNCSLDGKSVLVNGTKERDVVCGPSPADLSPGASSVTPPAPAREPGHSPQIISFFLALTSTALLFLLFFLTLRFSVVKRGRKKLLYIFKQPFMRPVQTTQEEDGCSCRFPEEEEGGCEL
T1 sequence (P25942 21-193 limits assumed): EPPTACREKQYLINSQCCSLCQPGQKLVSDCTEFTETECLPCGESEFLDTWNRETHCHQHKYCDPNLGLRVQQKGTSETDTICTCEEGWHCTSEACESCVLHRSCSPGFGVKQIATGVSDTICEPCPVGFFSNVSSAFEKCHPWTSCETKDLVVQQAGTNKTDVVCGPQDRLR

B1: sc4-1BBL-scOX40L (ligand)
chain: [not shown - about 200 residues]GGGGSGGGGSGGGGSREGPELSPDDPAGLLDLRQGMFAQLVAQNVLLIDGPLSWYSDPGLAGVSLTGGLSYKEDTKELVVAKAGVYYVFFQLELRRVVAGEGSGSVSLALHLQPLRSAAGAAALALTVDLPPASSEARNSAFGFQGRLLHLSAGQRLGVHLHTEARARHAWQLTQGATVLGLFRVTPEIPAGLPSPRSEGGGGSGGGGSGGGGSREGPELSPDDPAGLLDLRQGMFAQLVAQNVLLIDGPLSWYSDPGLAGVSLTGGLSYKEDTKELVVAKAGVYYVFFQLELRRVVAGEGSGSVSLALHLQPLRSAAGAAALALTVDLPPASSEARNSAFGFQGRLLHLSAGQRLGVHLHTEARARHAWQLTQGATVLGLFRVTPEIPAGLPSPRSEGGGGSGGGTGGGGSQVSHRYPRIQSIKVQFTEYKKEKGFILTSQKEDEIMKVQNNSVIINCDGFYLISLKGYFSQEVNISLHYQKDEEPLFQLKKVRSVNSLMVASLTYKDKVYLNVTTDNTSLDDFHVNGGELILIHQNPGEFCVLGGGSGGGQVSHRYPRIQSIKVQFTEYKKEKGFILTSQKEDEIMKVQNNSVIINCDGFYLISLKGYFSQEVNISLHYQKDEEPLFQLKKVRSVNSLMVASLTYKDKVYLNVTTDNTSLDDFHVNGGELILIHQNPGEFCVLGGGSGGGQVSHRYPRIQSIKVQFTEYKKEKGFILTSQKEDEIMKVQNNSVIINCDGFYLISLKGYFSQEVNISLHYQKDEEPLFQLKKVRSVNSLMVASLTYKDKVYLNVTTDNTSLDDFHVNGGELILIHQNPGEFCVL
notes: scDuokine from HEK293; VH leader left out; also called single-chain Duokine sc4-1BBL-scOX40L; not shown: N-terminal FLAG tag
Take B1: the binding result in [1] and in test [2] was “no binding (tested: 100 nM (FIG. 10))” throughout. The “Receptor activation (EC50, nM)” value in test [3] is 13.2 nM; in test [4], 0.45 nM. The 50% effective concentration (EC50) in test [5] worked out at 2.91 nM; in test [6], 5.23 nM.

B2: sc4-1BBL-scCD40L (ligand)
chain: [not shown - about 200 residues]GGGGSGGGGSGGGGSREGPELSPDDPAGLLDLRQGMFAQLVAQNVLLIDGPLSWYSDPGLAGVSLTGGLSYKEDTKELVVAKAGVYYVFFQLELRRVVAGEGSGSVSLALHLQPLRSAAGAAALALTVDLPPASSEARNSAFGFQGRLLHLSAGQRLGVHLHTEARARHAWQLTQGATVLGLFRVTPEIPAGLPSPRSEGGGGSGGGGSGGGGSREGPELSPDDPAGLLDLRQGMFAQLVAQNVLLIDGPLSWYSDPGLAGVSLTGGLSYKEDTKELVVAKAGVYYVFFQLELRRVVAGEGSGSVSLALHLQPLRSAAGAAALALTVDLPPASSEARNSAFGFQGRLLHLSAGQRLGVHLHTEARARHAWQLTQGATVLGLFRVTPEIPAGLPSPRSEGGGGSGGGTGGGGSGDQNPQIAAHVISEASSKTTSVLQWAEKGYYTMSNNLVTLENGKQLTVKRQGLYYIYAQVTFCSNREASSQAPFIASLCLKSPGRFERILLRAANTHSSAKPCGQQSIHLGGVFELQPGASVFVNVTDPSQVSHGTGFTSFGLLKLGGGSGGGGDQNPQIAAHVISEASSKTTSVLQWAEKGYYTMSNNLVTLENGKQLTVKRQGLYYIYAQVTFCSNREASSQAPFIASLCLKSPGRFERILLRAANTHSSAKPCGQQSIHLGGVFELQPGASVFVNVTDPSQVSHGTGFTSFGLLKLGGGSGGGGDQNPQIAAHVISEASSKTTSVLQWAEKGYYTMSNNLVTLENGKQLTVKRQGLYYIYAQVTFCSNREASSQAPFIASLCLKSPGRFERILLRAANTHSSAKPCGQQSIHLGGVFELQPGASVFVNVTDPSQVSHGTGFTSFGLLKL
notes: scDuokine from HEK293; VH leader left out; also called single-chain Duokine sc4-1BBL-scCD40L; not shown: N-terminal FLAG tag
B2: the binding result in [2] and in test [7] was “no binding (tested: 100 nM (FIG. 10))” in each case. Besides, the “Receptor activation (EC50, nM)” value is 2.85 nM in [8] and 0.18 nM in test [3]. Also, the EC50 in test [9] stood at 5.73 nM; in test [5] it was 2.28 nM.

B3: sc4-1BBL-scCD27L (ligand)
chain: [not shown - about 200 residues]GGGGSGGGGSGGGGSREGPELSPDDPAGLLDLRQGMFAQLVAQNVLLIDGPLSWYSDPGLAGVSLTGGLSYKEDTKELVVAKAGVYYVFFQLELRRVVAGEGSGSVSLALHLQPLRSAAGAAALALTVDLPPASSEARNSAFGFQGRLLHLSAGQRLGVHLHTEARARHAWQLTQGATVLGLFRVTPEIPAGLPSPRSEGGGGSGGGGSGGGGSREGPELSPDDPAGLLDLRQGMFAQLVAQNVLLIDGPLSWYSDPGLAGVSLTGGLSYKEDTKELVVAKAGVYYVFFQLELRRVVAGEGSGSVSLALHLQPLRSAAGAAALALTVDLPPASSEARNSAFGFQGRLLHLSAGQRLGVHLHTEARARHAWQLTQGATVLGLFRVTPEIPAGLPSPRSEGGGGSGGGTGGGGSSLGWDVAELQLNHTGPQQDPRLYWQGGPALGRSFLHGPELDKGQLRIHRDGIYMVHIQVTLAICSSTTASRHHPTTLAVGICSPASRSISLLRLSFHQGCTIASQRLTPLARGDTLCTNLTGTLLPSRNTDETFFGVQWVRPGGGSGGGSLGWDVAELQLNHTGPQQDPRLYWQGGPALGRSFLHGPELDKGQLRIHRDGIYMVHIQVTLAICSSTTASRHHPTTLAVGICSPASRSISLLRLSFHQGCTIASQRLTPLARGDTLCTNLTGTLLPSRNTDETFFGVQWVRPGGGSGGGSLGWDVAELQLNHTGPQQDPRLYWQGGPALGRSFLHGPELDKGQLRIHRDGIYMVHIQVTLAICSSTTASRHHPTTLAVGICSPASRSISLLRLSFHQGCTIASQRLTPLARGDTLCTNLTGTLLPSRNTDETFFGVQWVRP
notes: scDuokine from HEK293; VH leader left out; also called single-chain Duokine sc4-1BBL-scCD27L; not shown: N-terminal FLAG tag
For the molecule B3, the binding result in [1] and in [7] was “no binding (tested: 100 nM (FIG. 10))” in each case. Moreover, in [3], the “Receptor activation (EC50, nM)” value was determined as 1.37 nM. The EC50 amounted to 2.75 nM in test [10] and 2.9 nM in test [5].

B4: 4-1BBL-OX40L (ligand)
chain: [not shown - about 200 residues]GGGGSGGGGSGGGGSGGGGSQVSHRYPRIQSIKVQFTEYKKEKGFILTSQKEDEIMKVQNNSVIINCDGFYLISLKGYFSQEVNISLHYQKDEEPLFQLKKVRSVNSLMVASLTYKDKVYLNVTTDNTSLDDFHVNGGELILIHQNPGEFCVL
notes: Duokine from HEK293, FLAG-purified; VH leader left out; homotrimer by SEC; also called Duokine 4-1BBL-OX40L; not shown: N-terminal FLAG tag
On to B4, for which the binding result in test [1] and in test [2] was “no binding (tested: 100 nM (FIG. 4))” each time. The figures for the “Receptor activation (EC50, nM)” value in [11] and in [12] were 1.16 nM and 1.35 nM, respectively. Besides, the concentration giving a half-maximal response (EC50) in test [13] worked out at 1.13 nM; in test [14] it was 0.45 nM.

B5: 4-1BBL-CD27L (ligand)
chain: [not shown - about 200 residues]GGGGSGGGGSGGGGSGGGGSSLGWDVAELQLNHTGPQQDPRLYWQGGPALGRSFLHGPELDKGQLRIHRDGIYMVHIQVTLAICSSTTASRHHPTTLAVGICSPASRSISLLRLSFHQGCTIASQRLTPLARGDTLCTNLTGTLLPSRNTDETFFGVQWVRP
notes: Duokine from HEK293, FLAG-purified; VH leader left out; homotrimer by SEC; also called Duokine 4-1BBL-CD27L; not shown: N-terminal FLAG tag
Regarding B5, the binding result in test [1] and in test [7] was “no binding (tested: 100 nM (FIG. 4))” in each case. For the same molecule, the “Receptor activation (EC50, nM)” value in test [11] worked out at 1.22 nM. In addition, the EC50 amounted to 1.48 nM in test [15] and 1.41 nM in test [13].

One may read the EC50 as the concentration at which the effect is half-maximal. Lower therefore signals higher potency in that assay.
